# Screen size: about 380,000 compounds; about 4,000 (1.1%) were called active. The inconclusive results got no clear call from the source; some entries with a clear call stand among them for comparison. Calls come from the whole dose curve; as a rule, active = well fitted activation curve with a large enough effect; inconclusive = small, poorly fitted or top-dose-only effect; inactive = no such curve, though single readings can be large or run the other way. Where the call is inconclusive, the potency comes from a doubtful curve fit.
# Test: qHTS Assay to Identify Small Molecule Activators of BRCA1 Expression; note: nearly all actives have a fitted effect of over 80% in size
# Settings: MCF7-BRCA1-FFLuc reporter, luminescence, 48 h; activation: at 46.1 µM (top of the series), scaled: vehicle 0%, 10 µM genistein 100% unless noted
# Method in brief: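 Luminescence from a BRCA1-driven firefly luciferase in MCF7 cells was the read-out, taken 15 min after substrate addition following 48 h compound exposure at 37 °C. Data were normalized to a 10 microM genistein control and DMSO vehicle.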
# Potency is the fitted concentration of half-maximal effect; tags give direction and shape of the fitted curve.
Structure (SMILES),Potency,activation
O=C(Nc1ccc2c(c1)OCO2)c1cnc2n(c1=O)CCS2,active: 2.51 µM,
CCCCOc1ccc(C2(C)NC(=O)NC2=O)cc1 (configuration not stated),inactive,
COc1ccc(C(=O)c2cc3cccc(OC)c3o2)cc1,"inconclusive: 2.51 µM [activator, full curve, poor fit]",
CCc1cccc(CC)c1NC(=S)NC(C)c1ccccc1 (configuration not stated),"inconclusive: 31.6 µM [activator, single point]",
O=C(Nc1ccc(Oc2cccnc2)cc1)c1ccccc1F,active: 3.98 µM,
CCCCOc1ccc(C(=O)NCCc2ccccc2)cc1,"inconclusive: 1.58 µM [activator, full curve, poor fit]",
Nc1ccc(N=Nc2ccc(O)cc2)c(N)n1,"inconclusive: 1.26 µM [activator, full curve, poor fit]",
CN(Cc1ccsc1)C(=O)CCc1nnc(CCCc2ccccc2)o1,"inconclusive: 20 µM [activator, partial curve, poor fit]",
O=C(Nc1nc2nccc(-c3ccccc3)n2n1)c1ccccc1,"inconclusive: 1.58 µM [activator, full curve, poor fit]",
Cc1cccnc1NC(=S)Nc1ccc(Br)cc1Cl,"inconclusive: 6.31 µM [activator, partial curve, poor fit]",
CCN(Cc1ccccc1)c1ccc(/C=C(\C#N)c2ccccn2)cc1,active: 5.01 µM,
CCCCNC(=O)c1sc(=S)n2c1[nH]c(=O)c1ccccc12,inactive,
COc1cc(Cl)c(C)cc1NC(=O)c1cccc(OC)c1OC,"inconclusive: 10 µM [activator, partial curve, poor fit]",
CC1(C)Cc2c(sc(NC(=O)Nc3ccccc3)c2C(N)=O)CO1,"inconclusive: 10 µM [activator, partial curve, poor fit]",
CCCCc1nc2cc(C(=O)NCc3nccn3CC)ccc2o1,"inconclusive: 14.1 µM [activator, partial curve, poor fit]",
O=C(Nc1cccc(C(=O)O)c1)/C(=C\c1ccc2c(c1)OCO2)NC(=O)c1ccc(Br)o1,active: 8.91 µM,
O=[N+]([O-])c1cc(-c2nnc(-c3ccccc3)o2)ccc1Oc1ccc(Cl)cc1,"inconclusive: 35.5 µM [activator, single point]",
Fc1ccccc1/C=N/Nc1cc(N2CCCCC2)ncn1,"inconclusive: 2.51 µM [activator, full curve, poor fit]",
COc1ccccc1NC(=O)N1CCN(c2cccc(C(F)(F)F)c2)CC1,inactive,
C/C(=N/NC(=O)c1ccco1)c1ccc(NC(=O)c2ccc(Br)o2)cc1,"inconclusive: 14.1 µM [activator, partial curve, poor fit]",
C=CCN1N=C(/C=C/c2ccccc2)CCC1=O,"inconclusive: 35.5 µM [activator, single point]",
Fc1ccc(-c2nnc(SCc3cccnc3)o2)cc1,"inconclusive: 11.2 µM [activator, partial curve, poor fit]",
O=S(=O)(/N=C(/NC(=S)Nc1ccccc1)c1ccccc1)c1ccc(Cl)cc1,"inconclusive: 15.8 µM [activator, single point]",
CCN1CCN(C(=O)c2ccc3c(c2)N(Cc2ccccc2F)C(=O)c2ccccc2S3=O)CC1 (configuration not stated),,inconclusive: 191% [activator]

Structure (SMILES),Potency,activation
COc1ccc2c(-c3ccc(S(N)(=O)=O)cc3)c(-c3ccc(S(C)(=O)=O)cc3)sc2c1,inactive,
CCCOC(=O)NC1CCS(=O)(=O)C1 (configuration not stated),inactive,
O=C(CCc1ccccc1)Nc1nnc(-c2ccc3c(c2)CCCC3)o1,"inconclusive: 20 µM [activator, single point]",
Nc1nnc(/C=C/c2cccc([N+](=O)[O-])c2)s1,active: 15.8 µM,
CCN(CC)c1ccc(NC(=O)CCCCCN2C(=O)c3ccccc3C2=O)cc1,inactive,
Cc1ccc(-n2ncc3c(NCc4cccnc4)ncnc32)cc1C,active: 1 µM,
CCCOC(=O)c1ccc(-c2ccc(C=O)o2)cc1,,inconclusive: 72.2% [activator]
CCOc1ccc(S(=O)(=O)NCCC(=O)N2CC(C)CC(C)C2)cc1 (configuration not stated),inactive,
O=C(NCCc1ccccc1F)C(=O)Nc1nccs1,"inconclusive: 10 µM [activator, partial curve, poor fit]",
Cc1cccc(NC(=O)c2cc3ccccc3oc2=O)c1,"inconclusive: 1.58 µM [activator, full curve, poor fit]",
COc1cccc(C(=O)OCC(=O)N2CCc3ccccc32)c1OC,"inconclusive: 22.4 µM [activator, single point]",
CC(C)(c1ccccc1)c1ccc(OCc2ccc(C(=O)O)o2)cc1,"inconclusive: 2 µM [activator, full curve, poor fit]",
CCOC(=O)c1ccc(NC(=O)C2C3CCC(C3)C2C(=O)O)cc1 (configuration not stated),"inconclusive: 25.1 µM [activator, single point]",
COCC1CCN(Cc2nc(-c3cccs3)no2)C1 (configuration not stated),"inconclusive: 6.31 µM [activator, partial curve, poor fit]",
CCNCc1ccc(OCc2ccccc2F)c(OC)c1,"inconclusive: 12.6 µM [activator, partial curve, poor fit]",
COc1ccc(-c2ccc(NC(=O)c3ccc(Br)o3)cc2)nn1,active: 3.98 µM,
O=C(NCCCN1CCCC1=O)c1cc2c(s1)CCCCC2,active: 11.2 µM,
CCC(=O)c1ccc(OCC(=O)Nc2ccc3c(c2)OCCO3)cc1,"inconclusive: 35.5 µM [activator, single point]",
O=C(N/N=C/c1ccc[nH]1)c1ccc2c(c1)OCO2,"inconclusive: 7.08 µM [activator, partial curve, poor fit]",
Cc1cccc(Cn2cc(C(=O)Nc3ccc(S(N)(=O)=O)cc3)ccc2=O)c1,inactive,
O=C(c1cc2ccccc2o1)N1CCCCCC1,active: 8.91 µM,
CNCCCOc1ccc2c(c1)CCC2,active: 11.2 µM,
Cc1cccnc1NC(=S)NC(=O)c1oc2ccccc2c1C,active: 2.82 µM,
c1c2c(cc3sc(N4CCCCC4)nc13)OCO2,"inconclusive: 0.631 µM [activator, full curve, poor fit]",

Structure (SMILES),Potency,activation
COCCCNC(=O)COc1ccc(Br)cc1Cl,active: 12.6 µM,
CN(C)CCCNC(=O)c1cc(C(=O)c2cccc(Cl)c2Cl)c[nH]1,inactive,
CCOC(=O)c1cc(-c2ccccc2)nn1Cc1cc(CC)no1,"inconclusive: 17.8 µM [activator, partial curve, poor fit]",
COc1ccc(OCc2cc(C(=O)NCc3nc(C)cs3)no2)c(Cl)c1,"inconclusive: 22.4 µM [activator, single point]",
O=C(N[C@@H](Cc1ccccc1)C(=O)NC1CCCCCC1)c1ccco1,active: 11.2 µM,
COc1ccc(C(=O)/C=C/Nc2ccc(C)cn2)cc1OC,"inconclusive: 2.51 µM [activator, full curve, poor fit]",
COc1ccc(/C(N)=N/OC(=O)C2CCCCC2)cc1OC,active: 2.82 µM,
O=C(Nc1nnc([C@@H]2C[C@H](O)[C@@H](CO)O2)s1)Nc1cccc(Cl)c1Cl,"inconclusive: 14.1 µM [activator, partial curve, poor fit]",
O=C(NCCc1ccccc1)c1ccc2c(c1)OCCO2,,inconclusive: -87.7% [activator]
O=c1c2ccccc2nnn1CSc1ccc2c(c1)OCCO2,"inconclusive: 2.24 µM [activator, partial curve, poor fit]",
Cn1c(=O)n(CCc2ccccc2)c(=O)c2c1nc1n2CCCN1CCc1ccccc1,inactive,
Cc1cccc(C(=O)OCC(=O)c2c(C)[nH]c3ccccc23)c1O,"inconclusive: 14.1 µM [activator, single point]",
CC(C)c1cc(C(N)=O)c(NC(=O)c2cccc(COc3ccc(Br)cc3)c2)s1,"inconclusive: 0.501 µM [activator, full curve, poor fit]",
O=C(N/N=C/c1cccs1)c1ccc2ncccc2c1,"inconclusive: 35.5 µM [activator, single point]",
CCN=c1scc(-c2ccccc2)n1/N=C/c1ccccn1,inactive,
CC1CCN(c2ccc(NC(=O)c3ccc(Br)o3)cc2)CC1,"inconclusive: 0.562 µM [activator, full curve, poor fit]",
COc1ccc2c(c1)OC/C(=C/c1cccs1)C2=O,"inconclusive: 12.6 µM [activator, partial curve, poor fit]",
Cc1ccc(NC(=O)Nc2ccc3c(c2)CCC3)cc1,active: 3.98 µM,
COc1cccc(NC(=O)Nc2ccc(F)cc2)c1,"inconclusive: 11.2 µM [activator, partial curve, poor fit]",
COc1ccccc1CNC(=O)COc1ccccc1C(=O)c1cnn(-c2ccccc2)c1,"inconclusive: 12.6 µM [activator, partial curve, poor fit]",
Clc1ccc(-c2cnnc(-c3ccccn3)n2)cc1,"inconclusive: 2.51 µM [activator, full curve, poor fit]",
CN(C)CCN(C(=O)c1ccc(S(=O)(=O)N(C)c2ccccc2)cc1)c1nc2ccc(Cl)cc2s1,"inconclusive: 12.6 µM [activator, partial curve, poor fit]",
CCOc1ccc2cc(C(=O)c3ccccc3)c(=O)oc2c1,active: 10 µM,
CCn1c(C)nc2cc(NC(=O)Nc3cccc(C(C)=O)c3)ccc21,"inconclusive: 6.31 µM [activator, partial curve, poor fit]",

# Reference: PubChem BioAssay AID624202 (National Center for Advancing Translational Sciences (NCATS), 2012)
